Screen size: about 310,000 compounds; about 2,200 (0.71%) showed an effect of 50% or more. Effects have a minus sign here. The list shows a part of the results.
Each compound was assayed against human ether-à-go-go-related gene (hERG) potassium channel (human, UniProt Q12809) (assay: primary screen, population patch clamp on CHO cells stably expressing hERG).
human ether-à-go-go-related gene (hERG) potassium channel, sequence (Q12809 whole entry, looked up): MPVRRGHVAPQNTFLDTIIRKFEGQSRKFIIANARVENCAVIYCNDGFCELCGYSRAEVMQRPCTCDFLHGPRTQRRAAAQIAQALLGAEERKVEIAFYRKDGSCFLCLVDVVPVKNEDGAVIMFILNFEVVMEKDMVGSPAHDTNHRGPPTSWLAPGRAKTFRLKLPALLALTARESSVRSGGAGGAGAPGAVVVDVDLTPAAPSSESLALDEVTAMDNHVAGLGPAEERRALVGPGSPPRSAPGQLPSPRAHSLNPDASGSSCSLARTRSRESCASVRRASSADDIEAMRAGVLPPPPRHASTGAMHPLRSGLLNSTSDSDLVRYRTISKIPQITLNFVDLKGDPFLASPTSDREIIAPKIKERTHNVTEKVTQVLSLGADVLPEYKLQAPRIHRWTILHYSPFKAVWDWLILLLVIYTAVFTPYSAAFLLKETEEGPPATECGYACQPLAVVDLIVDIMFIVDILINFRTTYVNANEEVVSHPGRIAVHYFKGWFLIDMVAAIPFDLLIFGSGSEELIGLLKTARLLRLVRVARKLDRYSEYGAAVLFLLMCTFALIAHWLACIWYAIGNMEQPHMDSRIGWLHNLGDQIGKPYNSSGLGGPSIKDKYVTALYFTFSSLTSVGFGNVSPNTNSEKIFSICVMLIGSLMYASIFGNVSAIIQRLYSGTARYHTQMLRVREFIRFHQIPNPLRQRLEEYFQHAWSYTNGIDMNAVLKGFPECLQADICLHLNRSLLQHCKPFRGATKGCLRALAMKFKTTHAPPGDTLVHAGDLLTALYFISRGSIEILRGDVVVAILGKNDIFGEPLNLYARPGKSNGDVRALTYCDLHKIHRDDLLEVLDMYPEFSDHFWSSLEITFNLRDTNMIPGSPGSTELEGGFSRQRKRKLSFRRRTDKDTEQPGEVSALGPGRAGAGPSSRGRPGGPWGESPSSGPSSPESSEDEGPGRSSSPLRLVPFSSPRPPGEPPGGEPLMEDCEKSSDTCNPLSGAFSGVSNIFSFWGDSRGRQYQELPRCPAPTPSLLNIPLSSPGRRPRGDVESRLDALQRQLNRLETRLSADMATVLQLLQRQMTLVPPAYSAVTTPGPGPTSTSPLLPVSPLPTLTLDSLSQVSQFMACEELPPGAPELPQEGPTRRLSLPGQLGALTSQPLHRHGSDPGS

First: CCOc1ccc(OCCCC(=O)Nc2cc(Cl)ccc2-n2cncn2)cc1
Second: CCCOc1ccc(NC(=O)c2cc3cc(C)ccc3[nH]2)cc1
The “hERG current change (%, negative = inhibition) at 1uM” value of the first is lower: -15.8% for the first, 15.1% for the second.

First: CCC(=O)NC1(Cc2ccc(O)cc2)CCCCC1
Second: CC(C(=O)NCC1CCCCC1)N(C)Cc1cccc(Cl)c1 (centres unmarked)
The “hERG current change (%, negative = inhibition) at 1uM” value of the first is lower: 9.16% for the first, 12.3% for the second.

Going from `O=C(c1ccccc1)N(c1ccccc1)C1C=CS(=O)(=O)C1` (centres unmarked) to `Cc1ccccc1NC1=C(Cl)C(=O)OC1NC(=O)c1ccccc1` (centres unmarked), the “hERG current change (%, negative = inhibition) at 1uM” value rises from 6.8% to 14.9%.

Compared with `CCCOc1nc2c(c(=O)n(C)c(=O)n2C)n1C`, `CCOC(=O)c1cccc(NC(=O)c2cc3sccc3n2C)c1` is lower in “hERG current change (%, negative = inhibition) at 1uM” value: -0.0628% for the first, -10.4% for the second.

First: CCCCOP(=O)(c1ccc(N(C)C)cc1)C(O)c1cc(OC)ccc1OC (centres unmarked)
Second: CN(C)c1ccc(C(CC(=O)O)NC(=O)c2ccc(Cl)cc2)cc1 (centres unmarked)
The “hERG current change (%, negative = inhibition) at 1uM” value of the first is higher: 15.6% for the first, -3.81% for the second.

Compared with `CCCCc1cc(=O)oc2c(CN(C)C)c(O)c(Cl)cc12`, `COc1ccc(C(=O)NCCc2cc3c(OC)ccc(OC)c3[nH]c2=O)cc1OC` is higher in “hERG current change (%, negative = inhibition) at 1uM” value: 7.87% for the first, 8.19% for the second.

First: O=C(N/N=C\c1ccccc1F)c1ccc(-c2ccccc2)cc1
Second: Cc1ccc(-n2c(SCC(=O)N/N=C/c3ccccc3C(=O)O)nnc2-c2ccc(Cl)cc2)cc1
The “hERG current change (%, negative = inhibition) at 1uM” value of the first is higher: 12.2% for the first, 5.34% for the second.

Going from `Cc1cc(S(=O)(=O)NCCCN2CCOCC2)c(Cl)cc1Cl` to `COc1cc(Cl)c(S(=O)(=O)NCCCN2CCOCC2)cc1Cl`, the “hERG current change (%, negative = inhibition) at 1uM” value rises from 6.96% to 9.83%.

Going from `N#CC1=C(N)Oc2n[nH]c(-c3ccccc3)c2C1c1ccsc1` (centres unmarked) to `N#CC1=C(N)Oc2n[nH]c(-c3ccncc3)c2C1c1ccsc1` (centres unmarked), the “hERG current change (%, negative = inhibition) at 1uM” value falls from 7.75% to -2.44%.

First: COc1ccc(-c2c(C#Cc3ccsc3)c3cc(-c4cccc5[nH]ccc45)ccc3n2C)cc1
Second: Cc1ccc(-c2nnn(CC(=O)N(c3ccccc3F)C(C(=O)NCC3CCCO3)c3c[nH]c4ccccc34)n2)cc1 (centres unmarked)
The “hERG current change (%, negative = inhibition) at 1uM” value of the first is higher: 11.7% for the first, -1.17% for the second.

Compared with `CCOCCCNC(=O)CCCOc1ccccc1`, `CCCCc1nnc(NC(=O)CCSc2ccccc2)s1` is higher in “hERG current change (%, negative = inhibition) at 1uM” value: -4.54% for the first, -2.45% for the second.

First: COCCNC(=O)c1ccc2c(=O)n(Cc3ccco3)c(SCC(=O)NC3CCCCC3)nc2c1
Second: COC(=O)c1ccc(N(C(=O)c2ccco2)C(C(=O)NC2CCCC2)c2ccco2)cc1 (centres unmarked)
The “hERG current change (%, negative = inhibition) at 1uM” value of the first is lower: -15.3% for the first, 0.201% for the second.

First: CC(=O)Nc1ccc(NC(=O)C(=O)c2cn(CC(=O)N3CCCCC3)c3ccccc23)cc1
Second: O=C(c1ccco1)c1cn(CC(=O)N2CCCCC2)c2ccccc12
The “hERG current change (%, negative = inhibition) at 1uM” value of the first is higher: 9.75% for the first, 3.73% for the second.

Compared with `CC(=O)Nc1cccc(NC(=O)CSc2nc3ccccc3o2)c1`, `CSc1ncc(C(=O)Nc2cccc(S(N)(=O)=O)c2)n1-c1ccccc1` is higher in “hERG current change (%, negative = inhibition) at 1uM” value: -0.484% for the first, 26.1% for the second.

Going from `O=c1c(-c2n[nH]c(=S)n2-c2ccccc2)cccn1Cc1cccc(Cl)c1` to `O=C(c1ccc2ccccc2c1)N1CCN(Cc2ccccc2)CC1`, the “hERG current change (%, negative = inhibition) at 1uM” value falls from 15.8% to 8.13%.

Going from `CCc1ccc(N=CC2=C(O)CC(c3ccco3)CC2=O)cc1` (centres unmarked) to `CCCc1ccc(OC(=O)c2cccs2)cc1`, the “hERG current change (%, negative = inhibition) at 1uM” value falls from 6.9% to 2.87%.

First: Cc1cc(C)n2nc(C(=O)Nc3ccc4c(c3)CCC4)nc2n1
Second: Cc1cc(C)nc(NC(=O)c2ccc(Br)s2)n1
The “hERG current change (%, negative = inhibition) at 1uM” value of the first is lower: 3.95% for the first, 12.7% for the second.

First: COc1ccc(CNC(=O)CN(Cc2ccccc2Cl)C(=O)c2csnn2)cc1
Second: Cc1noc(C)c1COc1ccc(CC(=O)NCc2ccccc2)cc1
The “hERG current change (%, negative = inhibition) at 1uM” value of the first is lower: 2.58% for the first, 7.7% for the second.

First: CCN(CC)C(=O)Cn1cc(S(=O)(=O)CC(=O)N2CCOCC2)c2ccccc21
Second: CC(C)(C)NS(=O)(=O)c1ccc(OCC(=O)N2CCN(Cc3ccccc3)CC2)cc1
The “hERG current change (%, negative = inhibition) at 1uM” value of the first is higher: 7.45% for the first, 3.49% for the second.

First: O=C(O)C1CC=CCC1C(=O)c1ccccc1 (centres unmarked)
Second: Cc1cccc(C(=O)NNC(=O)c2cccc(C)c2)c1
The “hERG current change (%, negative = inhibition) at 1uM” value of the first is lower: 0.206% for the first, 13% for the second.

Going from `CC1CCN(C(=O)c2cc(-c3ccco3)on2)CC1` to `CC(C)(C)c1cc(NC(=O)c2ccc(OC3CCCC3)cc2)no1`, the “hERG current change (%, negative = inhibition) at 1uM” value rises from 4.2% to 16.6%.

First: O=C(NCc1ccccc1F)C1CCCN1C(=O)Nc1cccc(F)c1 (centres unmarked)
Second: CC(=O)c1cccc(N(CC(=O)Nc2ccccc2F)S(C)(=O)=O)c1
The “hERG current change (%, negative = inhibition) at 1uM” value of the first is lower: 9.43% for the first, 13.2% for the second.

Compared with `N/C(=N\OC(=O)c1cc([N+](=O)[O-])ccc1Cl)c1cccnc1`, `CCn1c(O)c(N=NC(=O)c2cccnc2)c2cc(Br)ccc21` is lower in “hERG current change (%, negative = inhibition) at 1uM” value: 11.6% for the first, 7.67% for the second.

First: OC(COc1cccc2ccccc12)CN1CCN(c2cccc(Cl)c2)CC1 (centres unmarked)
Second: O=c1[nH]c(CN2CCN(S(=O)(=O)c3ccc4ccccc4c3)CC2)nc2ccccc12
The “hERG current change (%, negative = inhibition) at 1uM” value of the first is higher: 8.8% for the first, 7.63% for the second.

Going from `Cc1ccc(Cl)cc1NC(=O)c1cnn2c1NC(c1ccco1)CC2C(F)(F)F` (centres unmarked) to `C/C(=N\NC(=O)c1c(Cl)c(C)nn1C)c1cccc(NC(=O)COc2ccc(Cl)cc2)c1`, the “hERG current change (%, negative = inhibition) at 1uM” value rises from -1.95% to 9.45%.

First: OCCC1CN(Cc2cn[nH]c2C2CCCCC2)CCN1Cc1ccccc1 (centres unmarked)
Second: Cc1cccc(CN2CCN(Cc3cccc4nonc34)CC2CCO)n1 (centres unmarked)
The “hERG current change (%, negative = inhibition) at 1uM” value of the first is lower: 6.61% for the first, 7.4% for the second.

First: CC(C)(C)NS(=O)(=O)c1ccc(NS(=O)(=O)c2ccc(F)cc2)cc1
Second: CC(=O)Nc1ccc(S(=O)(=O)Nc2cc(C)cn(Cc3ccc(C)cc3)c2=O)cc1
The “hERG current change (%, negative = inhibition) at 1uM” value of the first is lower: 9.01% for the first, 10.5% for the second.

Going from `O=C1CNC(=O)/C1=C\N1CCCCC1` to `CCc1cc2c(=O)c(-c3nc4ccccc4[nH]3)coc2c(CN2CCCCC2)c1O`, the “hERG current change (%, negative = inhibition) at 1uM” value falls from 11.6% to -4.7%.

First: CC(=O)c1cccc(NC(=O)COc2ccccc2C(=O)c2cc(C#N)c(=O)n(C3CCCCC3)c2)c1
Second: Cc1ccccc1CN1CCC(Oc2ccc(C(=O)N3CCCC3)cc2)CC1
The “hERG current change (%, negative = inhibition) at 1uM” value of the first is lower: -5.79% for the first, 12.2% for the second.

Compared with `CC1CCCN(C(=O)C2CCN(c3ncnc4c3nc3n4CCCCC3)CC2)C1` (centres unmarked), `COc1ccc(S(=O)(=O)N2CCC(C(=O)NC3CCCC3)CC2)cc1C` is lower in “hERG current change (%, negative = inhibition) at 1uM” value: 13.7% for the first, 9.67% for the second.

First: C/C(=N\O)c1ccc(Cl)c(Cl)c1
Second: Cc1cc(Cl)n2ncc(-c3ccccc3)c2n1
The “hERG current change (%, negative = inhibition) at 1uM” value of the first is higher: 15.7% for the first, 10.1% for the second.

First: CN(C)c1ccc(NC(=O)CC2NCCNC2=O)cc1 (centres unmarked)
Second: CC(C)CNC(=O)NC(=O)COC(=O)C1CSC2(c3ccc(F)cc3)CCC(=O)N12 (centres unmarked)
The “hERG current change (%, negative = inhibition) at 1uM” value of the first is lower: -2.06% for the first, 10.8% for the second.

First: Cl.N[C@@H](CO)c1cn([C@@H](Cc2cc3ccccc3[nH]2)C(=O)N2CCNCC2)nn1
Second: C[C@H]1CCC(=O)N([C@H](CSc2ccc(Br)cc2)Cc2ccccc2)CC1
The “hERG current change (%, negative = inhibition) at 1uM” value of the first is higher: 12.4% for the first, 12.2% for the second.

Compared with `CC(C)CCN1C(=O)CCC1(C)C(=O)NC1CCCCCC1` (centres unmarked), `CCn1cc(CN2CCCC(C(=O)c3sccc3C)C2)cn1` (centres unmarked) is higher in “hERG current change (%, negative = inhibition) at 1uM” value: -8.55% for the first, -2.01% for the second.

Going from `Cc1ccsc1-c1nc(CSCC(=O)N2CCC3(CC2)OCCO3)c(C)o1` to `O=C1NC(=O)C(=Cc2ccc(-c3ccc(S(=O)(=O)N4CCOCC4)cc3)o2)C(=O)N1`, the “hERG current change (%, negative = inhibition) at 1uM” value rises from 8.72% to 16.4%.

First: COCCn1nnnc1CN1CCOCC1.Cl
Second: CC1CC(C)CN(CCOc2cccc3ccccc23)C1 (centres unmarked)
The “hERG current change (%, negative = inhibition) at 1uM” value of the first is higher: 11.7% for the first, 6.81% for the second.

Going from `COc1cc(NC(=O)C2CC2)c(C(=O)O)cc1OC` to `O=C(O)c1ccc(OCc2occc2C(=O)O)cc1`, the “hERG current change (%, negative = inhibition) at 1uM” value falls from 9.08% to 7.63%.

Compared with `O=C(/C=C/c1ccco1)Nc1cccnc1`, `Nc1ccccc1Nc1ccncc1[N+](=O)[O-]` is higher in “hERG current change (%, negative = inhibition) at 1uM” value: 3.48% for the first, 11.9% for the second.

Going from `COC(=O)CCc1c(C)c(C(=O)c2cc(F)c(F)c(F)c2F)c2ccccn12` to `CC(=O)Nc1sc(C)c(C)c1C(=O)OCC(=O)N(Cc1ccccc1)C(C)C`, the “hERG current change (%, negative = inhibition) at 1uM” value falls from 12.3% to 10.8%.

Going from `CCn1cc(C(=O)NCc2ccncc2)c(=O)c2cc(F)c(N3CCN(C(=O)c4ccco4)CC3)cc21` to `CCN(C(=O)CSc1nc2cc(C(F)(F)F)ccc2n1Cc1ccccc1)C1CCS(=O)(=O)C1` (centres unmarked), the “hERG current change (%, negative = inhibition) at 1uM” value rises from -33.1% to 8.83%.

Compared with `COC(=O)C1C2C=CC3(CN(Cc4ccco4)C(=O)C13)O2` (centres unmarked), `CC(=O)O[C@@H]1[C@H](OC(=O)CC(C)C)c2c(ccc3ccc(=O)oc23)OC1(C)C` is lower in “hERG current change (%, negative = inhibition) at 1uM” value: 17.6% for the first, -22.3% for the second.

Going from `COc1cc(CNCc2ccc(SC)cc2)cc(OC)c1` to `COc1ccc(OC)c(-n2c(O)c(C=NCc3ccc4c(c3)OCO4)c(=O)[nH]c2=O)c1`, the “hERG current change (%, negative = inhibition) at 1uM” value rises from 6.88% to 8.24%.

Going from `O=C(NN/C(=N/S(=O)(=O)c1ccc(Cl)cc1)c1ccccc1)c1cccc(Cl)c1` to `CCCc1[nH]nc2c1C(CCc1ccccc1)C(C#N)=C(N)O2` (centres unmarked), the “hERG current change (%, negative = inhibition) at 1uM” value rises from 11.7% to 18.3%.

Going from `O=C(NCc1cccnc1)C(=O)NCC1CCCO1` (centres unmarked) to `O=C(O)c1cc2c(o1)CCC/C2=N\O`, the “hERG current change (%, negative = inhibition) at 1uM” value falls from 17.7% to 8.6%.

With `CC1(C)CN(c2ccc(-c3ccnc4ncnn34)cc2)C1=O` the “hERG current change (%, negative = inhibition) at 1uM” value was 9.34%.

Source: paper PMC4336329 (PLoS ONE, 2015)
